# Experimental data as given in the supplement of paper PMC8728848.
# This is one part of the list.
# Key:
# Experiment in all cases: glycan array binding signal (z-score within array); higher = stronger binding
# Conditions in all cases: glycan notation: IUPAC condensed, linker removed
# [1] = target: GlcNAc(b1-3)Gal(b1-3)GalNAc
# How it was run: (§1)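 Columns mapping to the same glycan were averaged after glycan names were converted to IUPAC-condensed notation. The data come from 3228 arrays in the Consortium for Functional Glycomics database, limited to those with an available protein sequence. Binding is reported as a within-array Z-score averaged across arrays of one protein sequence and across linkers.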
# GlcNAc(b1-3)Gal(b1-4)Glc = target: GlcNAc(b1-3)Gal(b1-4)Glc
# How it was run: as §1
# [2] = target: GlcNAc(b1-3)Gal(b1-4)GlcNAc
# How it was run: as §1
# [3] = target: GlcNAc(b1-3)Gal(b1-4)GlcNAc(b1-3)Gal(b1-4)GlcNAc
# How it was run: as §1
# GlcNAc(b1-3)GalNAc = target: GlcNAc(b1-3)GalNAc
# How it was run: as §1
# GlcNAc(b1-3)Man = target: GlcNAc(b1-3)Man
# How it was run: as §1
# [4] = target: GlcNAc(b1-3)[GlcNAc(b1-4)][GlcNAc(b1-6)]GlcNAc
# How it was run: as §1
# [5] = target: GlcNAc(b1-3)[GlcNAc(b1-6)]Gal(b1-4)GlcNAc
# How it was run: as §1
# [6] = target: GlcNAc(b1-3)[GlcNAc(b1-6)]GalNAc
# How it was run: as §1
# [7] = target: GlcNAc(b1-4)Gal(b1-4)GlcNAc
# How it was run: as §1
# GlcNAc(b1-4)GlcNAc = target: GlcNAc(b1-4)GlcNAc
# How it was run: as §1
# [8] = target: GlcNAc(b1-4)GlcNAc(b1-4)GlcNAc
# How it was run: as §1
# [9] = target: GlcNAc(b1-4)GlcNAc(b1-4)GlcNAc(b1-4)GlcNAc(b1-4)GlcNAc
# How it was run: as §1
# [10] = target: GlcNAc(b1-4)GlcNAc(b1-4)GlcNAc(b1-4)GlcNAc(b1-4)GlcNAc(b1-4)GlcNAc
# How it was run: as §1
# [11] = target: GlcNAc(b1-4)[GlcNAc(b1-6)]GalNAc
# How it was run: as §1
# [12] = target: GlcNAc(b1-6)Gal(b1-4)GlcNAc
# How it was run: as §1
# GlcNAc(b1-6)GalNAc = target: GlcNAc(b1-6)GalNAc
# How it was run: as §1
# GlcNAc3Prop(b1-4)GlcNAc = target: GlcNAc3Prop(b1-4)GlcNAc
# How it was run: as §1
# [13] = target: GlcNAc6S(b1-3)Gal(b1-4)GlcNAc
# How it was run: as §1
# Kdn(a2-3)Gal(b1-3)GalNAc = target: Kdn(a2-3)Gal(b1-3)GalNAc
# How it was run: as §1
# Kdn(a2-3)Gal(b1-3)GlcNAc = target: Kdn(a2-3)Gal(b1-3)GlcNAc
# How it was run: as §1
# Kdn(a2-3)Gal(b1-4)Glc = target: Kdn(a2-3)Gal(b1-4)Glc
# How it was run: as §1
# Kdn(a2-3)Gal(b1-4)GlcNAc = target: Kdn(a2-3)Gal(b1-4)GlcNAc
# How it was run: as §1
# [14] = target: Kdn(a2-3)Gal(b1-4)[Fuc(a1-3)]GlcNAc
# How it was run: as §1
# Kdn(a2-6)Gal(b1-4)GlcNAc = target: Kdn(a2-6)Gal(b1-4)GlcNAc
# How it was run: as §1
# [15] = target: Man(a1-2)Man(a1-2)Man(a1-3)Man
# How it was run: as §1
# [16] = target: Man(a1-2)Man(a1-2)Man(a1-6)[Man(a1-3)]Man
# How it was run: as §1
# Man(a1-2)Man(a1-3)Man = target: Man(a1-2)Man(a1-3)Man
# How it was run: as §1
# [17] = target: Man(a1-2)Man(a1-3)[Man(a1-2)Man(a1-6)]Man
# How it was run: as §1
# [18] = target: Man(a1-2)Man(a1-3)[Man(a1-2)Man(a1-6)]Man(a1-6)[Man(a1-2)Man(a1-2)Man(a1-3)]Man
# How it was run: as §1
# [19] = target: Man(a1-2)Man(a1-3)[Man(a1-2)Man(a1-6)]Man(a1-6)[Man(a1-2)Man(a1-2)Man(a1-3)]Man(b1-4)GlcNAc(b1-4)GlcNAc
# How it was run: as §1
# [20] = target: Man(a1-2)Man(a1-3)[Man(a1-6)]Man(a1-6)[Man(a1-2)Man(a1-3)]Man(b1-4)GlcNAc(b1-4)GlcNAc
# How it was run: as §1
# [21] = target: Man(a1-2)Man(a1-6)[Man(a1-3)]Man(a1-6)[Man(a1-2)Man(a1-2)Man(a1-3)]Man
# How it was run: as §1
# [22] = target: Man(a1-2)Man(a1-6)[Man(a1-3)]Man(a1-6)[Man(a1-2)Man(a1-2)Man(a1-3)]Man(b1-4)GlcNAc(b1-4)GlcNAc
# How it was run: as §1
# Man(a1-3)[Man(a1-6)]Man = target: Man(a1-3)[Man(a1-6)]Man
# How it was run: as §1
# [23] = target: Man(a1-3)[Man(a1-6)]Man(a1-6)[Man(a1-2)Man(a1-3)]Man(b1-4)GlcNAc(b1-4)GlcNAc
# How it was run: as §1
# [24] = target: Man(a1-3)[Man(a1-6)]Man(a1-6)[Man(a1-3)]Man
# How it was run: as §1
# [25] = target: Man(a1-3)[Man(a1-6)]Man(a1-6)[Man(a1-3)]Man(b1-4)GlcNAc(b1-4)GlcNAc
# How it was run: as §1
# [26] = target: Man(a1-3)[Man(a1-6)]Man(b1-4)GlcNAc(b1-4)GlcNAc
# How it was run: as §1
# Man(a1-6)Man = target: Man(a1-6)Man
# How it was run: as §1
# Man(b1-4)GlcNAc = target: Man(b1-4)GlcNAc
# How it was run: as §1
# Neu5Ac(a2-3)Gal = target: Neu5Ac(a2-3)Gal
# How it was run: as §1
# [27] = target: Neu5Ac(a2-3)Gal(b1-3)GalNAc
# How it was run: as §1
# [28] = target: Neu5Ac(a2-3)Gal(b1-3)GalNAc(b1-3)Gal(a1-4)Gal(b1-4)Glc
# How it was run: as §1
# [29] = target: Neu5Ac(a2-3)Gal(b1-3)GalNAc(b1-3)Gal(b1-4)GlcNAc
# How it was run: as §1
binder,measurement,setting,value
"Tachylectin-2 (Tachypleus tridentatus), TAL2_TACTR (protein) VGGESMLRGVYQDKFYQGTYPQNKNDNWLARATLIGKGGWSNFKFLFLSPGGELYGVLNDKIYKGTPPTHDNDNWMGRAKKIGNGGWNQFQFLFFDPNGYLYAVSKDKLYKASPPQSDTDNWIARATEIGSGGWSGFKFLFFHPNGYLYAVHGQQFYKALPPVSNQDNWLARATKIGQGGWDTFKFLFFSSVGTLFGVQGGKFYEDYPPSYAHDNWLARAKLIGNGGWDDFRFLFF",glycan array binding signal (z-score),[1],-0.349
same,glycan array binding signal (z-score),GlcNAc(b1-3)Gal(b1-4)Glc,1.74
same,glycan array binding signal (z-score),[2],0.651
same,glycan array binding signal (z-score),[3],-0.231
same,glycan array binding signal (z-score),GlcNAc(b1-3)GalNAc,-0.348
same,glycan array binding signal (z-score),GlcNAc(b1-3)Man,-0.096
same,glycan array binding signal (z-score),[4],-0.413
same,glycan array binding signal (z-score),[5],2.19
same,glycan array binding signal (z-score),[6],-0.283
same,glycan array binding signal (z-score),[7],1.17
same,glycan array binding signal (z-score),GlcNAc(b1-4)GlcNAc,0.169
same,glycan array binding signal (z-score),[8],0.09
same,glycan array binding signal (z-score),[9],0.004
same,glycan array binding signal (z-score),[10],-0.051
same,glycan array binding signal (z-score),[11],0.045
same,glycan array binding signal (z-score),[12],-0.26
same,glycan array binding signal (z-score),GlcNAc(b1-6)GalNAc,1.42
same,glycan array binding signal (z-score),GlcNAc3Prop(b1-4)GlcNAc,-0.213
same,glycan array binding signal (z-score),[13],-0.284
same,glycan array binding signal (z-score),Kdn(a2-3)Gal(b1-3)GalNAc,-0.296
same,glycan array binding signal (z-score),Kdn(a2-3)Gal(b1-3)GlcNAc,-0.365
same,glycan array binding signal (z-score),Kdn(a2-3)Gal(b1-4)Glc,-0.295
same,glycan array binding signal (z-score),Kdn(a2-3)Gal(b1-4)GlcNAc,-0.372
same,glycan array binding signal (z-score),[14],-0.297
same,glycan array binding signal (z-score),Kdn(a2-6)Gal(b1-4)GlcNAc,-0.295
same,glycan array binding signal (z-score),[15],-0.386
same,glycan array binding signal (z-score),[16],-0.33
same,glycan array binding signal (z-score),Man(a1-2)Man(a1-3)Man,-0.198
same,glycan array binding signal (z-score),[17],-0.251
same,glycan array binding signal (z-score),[18],-0.321
same,glycan array binding signal (z-score),[19],-0.329
same,glycan array binding signal (z-score),[20],-0.173
same,glycan array binding signal (z-score),[21],-0.195
same,glycan array binding signal (z-score),[22],-0.358
same,glycan array binding signal (z-score),Man(a1-3)[Man(a1-6)]Man,-0.313
same,glycan array binding signal (z-score),[23],-0.302
same,glycan array binding signal (z-score),[24],-0.344
same,glycan array binding signal (z-score),[25],-0.235
same,glycan array binding signal (z-score),[26],-0.246
same,glycan array binding signal (z-score),Man(a1-6)Man,-0.362
same,glycan array binding signal (z-score),Man(b1-4)GlcNAc,-0.282
same,glycan array binding signal (z-score),Neu5Ac(a2-3)Gal,-0.369
same,glycan array binding signal (z-score),[27],-0.249
same,glycan array binding signal (z-score),[28],-0.424
same,glycan array binding signal (z-score),[29],-0.029
